{"source": "PubChem BioAssay AID485294", "about": "(National Center for Advancing Translational Sciences (NCATS), 2010)", "note": "Hit rate of the full screen: of about 370,000 compounds, about 150 (0.041%) were called active. The shares of active, inactive and inconclusive entries below differ from those in the screen. Calls come from the whole dose curve; as a rule, active = well fitted inhibition curve with a large enough effect; inconclusive = small, poorly fitted or top-dose-only effect; inactive = flat fitted curve, though single readings scatter. No potency is given beside an inconclusive call; the fits are too rough."}
{"molecular_target": "Beta-lactamase (Escherichia coli (strain K12)) (UniProt P00811)", "sequence (P00811 whole entry, looked up)": "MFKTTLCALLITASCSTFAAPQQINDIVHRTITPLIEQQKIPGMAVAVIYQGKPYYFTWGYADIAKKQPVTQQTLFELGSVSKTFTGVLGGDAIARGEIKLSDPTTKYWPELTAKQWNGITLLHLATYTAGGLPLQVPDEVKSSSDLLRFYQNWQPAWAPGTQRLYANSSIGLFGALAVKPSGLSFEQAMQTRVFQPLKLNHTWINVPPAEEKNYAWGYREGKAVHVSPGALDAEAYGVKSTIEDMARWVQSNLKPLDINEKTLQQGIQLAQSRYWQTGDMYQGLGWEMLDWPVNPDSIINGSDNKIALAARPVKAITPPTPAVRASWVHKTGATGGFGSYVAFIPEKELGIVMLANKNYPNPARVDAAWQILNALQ", "test": "qHTS Inhibitors of AmpC Beta-Lactamase (assay with detergent); note: nearly all actives have a fitted effect of over 25% in size; note: potency is the fitted concentration of half-maximal effect; tags give direction and shape of the fitted curve", "details": "AmpC hydrolysis of nitrocefin, absorbance 480 nm, 0.01% Triton; series mostly up to 114 µM", "how_it_was_run": "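20 mM phosphate pH 7.0 + 0.01% (detergent screen) or 0.0001% Triton X-100; 5.3 nM AmpC reagent; cpd preinc 15 min RT; nitrocefin (800 uM stock) to start; A480 q20 s × 4 min; Activity was normalised to no-enzyme and no-compound control wells.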"}
{"molecule": "Cc1cc(=O)[nH]c(SCC(=O)N2c3ccccc3CC2C)n1", "note": "(stereo not given)", "Potency": "inconclusive [inhibitor, full curve, poor fit]"}
{"molecule": "Cn1c(NC(=O)C(C)(C)Oc2ccc(Cl)cc2)cc(=O)n(C)c1=O", "Potency": "inconclusive [inhibitor, full curve, poor fit]"}
{"molecule": "COc1ccc(C)cc1Nc1cc(C)nc2ncnn12", "Potency": "inconclusive [inhibitor, partial curve, poor fit]"}
{"molecule": "O=[N+]([O-])c1ccc(C(O)CNC(=S)Nc2ccccc2)cc1", "note": "(stereo not given)", "Potency": "inactive"}
{"molecule": "O=C(c1cnccn1)N(Cc1ccco1)C1(C(=O)NC2CCCCC2)CCCCC1", "Potency": "inconclusive [inhibitor, single point]"}
{"molecule": "Cc1ccc(/C(N)=N/OC(=O)COc2ccccc2Cl)cc1", "Potency": "inconclusive [inhibitor, full curve, poor fit]"}
{"molecule": "CCOC(=O)N1CCC(NC(=O)C2CCCN(C(=O)N3CCOc4ccccc43)C2)CC1", "note": "(stereo not given)", "Potency": "inconclusive [inhibitor, full curve, poor fit]"}
{"molecule": "O=[N+]([O-])c1ccc(/C=N/Nc2nc(N3CCCC3)nc(N3CCCC3)n2)o1", "Potency": "inactive"}
{"molecule": "COc1ccccc1OCC(=O)N1CCCC(N2CCN(c3ccc(F)cc3)CC2)C1", "note": "(stereo not given)", "Potency": "inactive"}
{"molecule": "C=C(C)COc1ccc(-c2ncncc2Oc2ccc(OC)cc2)c(O)c1", "Potency": "inactive"}
{"molecule": "CCOC(=O)Nc1ccc2c(C)cc(=O)oc2c1", "Potency": "inactive"}
{"molecule": "CC(=O)Nc1ccc(S(=O)(=O)NNc2cccc(C)c2)cc1", "Potency": "inactive"}
{"molecule": "CCCCNC(=O)c1ccc2c(=O)n(CCCOCC)c(=S)[nH]c2c1", "Potency": "inconclusive [inhibitor, single point]"}
{"molecule": "Cc1ccc(C(=O)N/C(=C/c2cccnc2)C(=O)NCc2ccco2)cc1", "Potency": "inconclusive [inhibitor, full curve, poor fit]"}
{"molecule": "CCCCC(=O)Nc1cnc(NC(=O)c2cccs2)cc1C", "Potency": "inconclusive [inhibitor, full curve, poor fit]"}
{"molecule": "CN(CC(=O)Nc1ccccc1C(F)(F)F)C(=O)CCc1nc2ccccc2c(=O)[nH]1", "Potency": "inconclusive [inhibitor, full curve, poor fit]"}
{"molecule": "CC(=O)/C=C/c1ccc(C)o1", "Potency": "inactive"}
{"molecule": "COc1cccc(C(=O)NCC(c2ccco2)N2CCOCC2)c1", "note": "(stereo not given)", "Potency": "inconclusive [inhibitor, partial curve, poor fit]"}
{"molecule": "O=C(NC(=S)Nc1ccc(CN2CCOCC2)cc1)c1ccco1", "Potency": "inconclusive [inhibitor, full curve, poor fit]"}
{"molecule": "COc1ccc(-c2nc(CSCC(=O)N3CCc4ccccc4C3)c(C)o2)cc1OC", "Potency": "inactive"}
